# Measurements as given in the supplement of paper PMC8728848.
# Some of the results follow.
# B1: RNase 1 (Homo sapiens) (protein)
# chain: KESRAKKFQRQHMDSDSSPSSSSTYCNQMMRRRNMTQGRCKPVNTFVHEPLVDVQNVCFQEKVTCKNGQGNCYKSNSSMHITDCRLTNGSRYPNCAYRTSPKERHIIVACEGSPYVPVHFDASVEDST
# Experiments:
# Assay in all cases: glycan array binding signal (z-score within array); higher = stronger binding
# Conditions in all cases: glycan notation: IUPAC condensed, linker removed
# [1] = biological target: Neu5Ac(a2-3)Gal(b1-4)GlcNAc
# Procedure, shortened: (§1)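 Arrays were curated from the Consortium for Functional Glycomics database, 3228 in total, and kept only where the protein sequence was available. Binding is expressed as a within-array Z-score. This score was averaged across arrays of the same protein sequence at different concentrations or buffers and across linkers, and negative values can be read as non-binding.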
# [2] = biological target: Neu5Ac(a2-3)Gal(b1-4)GlcNAc(b1-3)Gal(b1-4)GlcNAc
# Procedure, shortened: as §1
# [3] = biological target: Neu5Ac(a2-3)Gal(b1-4)GlcNAc(b1-3)Gal(b1-4)GlcNAc(b1-3)Gal(b1-4)GlcNAc
# Procedure, shortened: as §1
# [4] = biological target: Neu5Ac(a2-3)Gal(b1-4)GlcNAc(b1-3)Gal(b1-4)[Fuc(a1-3)]GlcNAc
# Procedure, shortened: as §1
# [5] = biological target: Neu5Ac(a2-3)Gal(b1-4)GlcNAc6S
# Procedure, shortened: as §1
# [6] = biological target: Neu5Ac(a2-3)Gal(b1-4)[Fuc(a1-3)]GlcNAc
# Procedure, shortened: as §1
# [7] = biological target: Neu5Ac(a2-3)Gal(b1-4)[Fuc(a1-3)]GlcNAc(b1-3)Gal
# Procedure, shortened: as §1
# [8] = biological target: Neu5Ac(a2-3)Gal(b1-4)[Fuc(a1-3)]GlcNAc(b1-3)Gal(b1-4)GlcNAc
# Procedure, shortened: as §1
# [9] = biological target: Neu5Ac(a2-3)Gal(b1-4)[Fuc(a1-3)]GlcNAc(b1-3)Gal(b1-4)[Fuc(a1-3)]GlcNAc(b1-3)Gal(b1-4)[Fuc(a1-3)]GlcNAc
# Procedure, shortened: as §1
# [10] = biological target: Neu5Ac(a2-3)Gal(b1-4)[Fuc(a1-3)]GlcNAc6S
# Procedure, shortened: as §1
# [11] = biological target: Neu5Ac(a2-3)Gal6S(b1-4)GlcNAc
# Procedure, shortened: as §1
# [12] = biological target: Neu5Ac(a2-3)Gal6S(b1-4)[Fuc(a1-3)]GlcNAc
# Procedure, shortened: as §1
# Neu5Ac(a2-3)GalNAc = biological target: Neu5Ac(a2-3)GalNAc
# Procedure, shortened: as §1
# [13] = biological target: Neu5Ac(a2-3)GalNAc(b1-4)GlcNAc
# Procedure, shortened: as §1
# [14] = biological target: Neu5Ac(a2-3)[GalNAc(b1-4)]Gal(b1-4)Glc
# Procedure, shortened: as §1
# [15] = biological target: Neu5Ac(a2-3)[GalNAc(b1-4)]Gal(b1-4)GlcNAc
# Procedure, shortened: as §1
# [16] = biological target: Neu5Ac(a2-3)[Neu5Ac(a2-6)]GalNAc
# Procedure, shortened: as §1
# [17] = biological target: Neu5Ac(a2-6)Gal(b1-4)GlcNAc
# Procedure, shortened: as §1
# [18] = biological target: Neu5Ac(a2-6)Gal(b1-4)GlcNAc(b1-2)Man(a1-3)[Neu5Ac(a2-6)Gal(b1-4)GlcNAc(b1-2)Man(a1-6)]Man(b1-4)GlcNAc(b1-4)GlcNAc
# Procedure, shortened: as §1
# [19] = biological target: Neu5Ac(a2-6)Gal(b1-4)GlcNAc(b1-3)Gal(b1-4)GlcNAc
# Procedure, shortened: as §1
# [20] = biological target: Neu5Ac(a2-6)Gal(b1-4)GlcNAc(b1-3)Gal(b1-4)[Fuc(a1-3)]GlcNAc(b1-3)Gal(b1-4)[Fuc(a1-3)]GlcNAc
# Procedure, shortened: as §1
# [21] = biological target: Neu5Ac(a2-6)Gal(b1-4)GlcNAc6S
# Procedure, shortened: as §1
# Neu5Ac(a2-6)GalNAc = biological target: Neu5Ac(a2-6)GalNAc
# Procedure, shortened: as §1
# [22] = biological target: Neu5Ac(a2-6)GalNAc(b1-4)GlcNAc
# Procedure, shortened: as §1
# Neu5Ac(a2-8)Neu5Ac = biological target: Neu5Ac(a2-8)Neu5Ac
# Procedure, shortened: as §1
# [23] = biological target: Neu5Ac(a2-8)Neu5Ac(a2-3)Gal(b1-4)Glc
# Procedure, shortened: as §1
# [24] = biological target: Neu5Ac(a2-8)Neu5Ac(a2-3)[GalNAc(b1-4)]Gal(b1-4)Glc
# Procedure, shortened: as §1
# [25] = biological target: Neu5Ac(a2-8)Neu5Ac(a2-8)Neu5Ac
# Procedure, shortened: as §1
# [26] = biological target: Neu5Ac(a2-8)Neu5Ac(a2-8)Neu5Ac(a2-3)Gal(b1-4)Glc
# Procedure, shortened: as §1
# [27] = biological target: Neu5Ac(a2-8)Neu5Ac(a2-8)Neu5Ac(a2-3)[GalNAc(b1-4)]Gal(b1-4)Glc
# Procedure, shortened: as §1
# [28] = biological target: Neu5Ac(a2-8)Neu5Ac(a2-8)Neu5Ac(a2-8)Neu5Ac(a2-3)[GalNAc(b1-4)]Gal(b1-4)Glc
# Procedure, shortened: as §1
# [29] = biological target: Neu5Ac9Ac(a2-6)Gal(b1-4)GlcNAc
# Procedure, shortened: as §1
# [30] = biological target: Neu5Gc(a2-3)Gal(b1-3)GlcNAc
# Procedure, shortened: as §1
# [31] = biological target: Neu5Gc(a2-3)Gal(b1-3)[Fuc(a1-4)]GlcNAc
# Procedure, shortened: as §1
# Neu5Gc(a2-3)Gal(b1-4)Glc = biological target: Neu5Gc(a2-3)Gal(b1-4)Glc
# Procedure, shortened: as §1
# [32] = biological target: Neu5Gc(a2-3)Gal(b1-4)GlcNAc
# Procedure, shortened: as §1
# [33] = biological target: Neu5Gc(a2-3)Gal(b1-4)[Fuc(a1-4)]GlcNAc
# Procedure, shortened: as §1
# [34] = biological target: Neu5Gc(a2-6)Gal(b1-4)GlcNAc
# Procedure, shortened: as §1
# Neu5Gc(a2-6)GalNAc = biological target: Neu5Gc(a2-6)GalNAc
# Procedure, shortened: as §1
binder,measurement,setting,value
B1,glycan array binding signal (z-score),[1],-0.203
same,glycan array binding signal (z-score),[2],-0.24
same,glycan array binding signal (z-score),[3],-0.186
same,glycan array binding signal (z-score),[4],-0.22
same,glycan array binding signal (z-score),[5],-0.133
same,glycan array binding signal (z-score),[6],-0.223
same,glycan array binding signal (z-score),[7],-0.22
same,glycan array binding signal (z-score),[8],0.086
same,glycan array binding signal (z-score),[9],-0.187
same,glycan array binding signal (z-score),[10],-0.234
same,glycan array binding signal (z-score),[11],-0.171
same,glycan array binding signal (z-score),[12],-0.207
same,glycan array binding signal (z-score),Neu5Ac(a2-3)GalNAc,-0.24
same,glycan array binding signal (z-score),[13],-0.237
same,glycan array binding signal (z-score),[14],-0.237
same,glycan array binding signal (z-score),[15],-0.14
same,glycan array binding signal (z-score),[16],-0.21
same,glycan array binding signal (z-score),[17],-0.188
same,glycan array binding signal (z-score),[18],-0.13
same,glycan array binding signal (z-score),[19],-0.25
same,glycan array binding signal (z-score),[20],-0.214
same,glycan array binding signal (z-score),[21],-0.212
same,glycan array binding signal (z-score),Neu5Ac(a2-6)GalNAc,-0.216
same,glycan array binding signal (z-score),[22],-0.214
same,glycan array binding signal (z-score),Neu5Ac(a2-8)Neu5Ac,-0.22
same,glycan array binding signal (z-score),[23],-0.202
same,glycan array binding signal (z-score),[24],-0.226
same,glycan array binding signal (z-score),[25],-0.221
same,glycan array binding signal (z-score),[26],-0.206
same,glycan array binding signal (z-score),[27],-0.187
same,glycan array binding signal (z-score),[28],-0.221
same,glycan array binding signal (z-score),[29],0.183
same,glycan array binding signal (z-score),[30],-0.222
same,glycan array binding signal (z-score),[31],-0.233
same,glycan array binding signal (z-score),Neu5Gc(a2-3)Gal(b1-4)Glc,-0.134
same,glycan array binding signal (z-score),[32],-0.226
same,glycan array binding signal (z-score),[33],-0.221
same,glycan array binding signal (z-score),[34],-0.201
same,glycan array binding signal (z-score),Neu5Gc(a2-6)GalNAc,-0.197
